For orientation: EC50 (read off the curve) means the midpoint of the concentration-response curve. In general, Kd refers to the concentration at which binding is half-saturated.

These results are taken from US20250381289A1 (Genmab, published 2025).

Experiment [1] addresses T1, EGFR on EGFR and cMET co-expressed tumor cell lines (UniProt P00533).
T1 construct: whole, on cells
Description: flow cytometry on ACHN cells (co-express EGFR and cMET), PE anti-human Fc; signal of the whole bispecific, not resolved by arm. Background: A flow cytometer gives signals particle by particle.

The target in experiment [2] is T2, cMET on EGFR and cMET co-expressed tumor cell lines (UniProt P08581).
T2 construct: whole, on cells
Described as above.

The next experiment deals with T3, Human EGFR (human, UniProt P00533).
T3 construct: recombinant protein coated on the ELISA plate; also called human EGFR recombinant protein
Description: ELISA, plate coated with 100 ng/well human EGFR recombinant protein, HRP anti-human Fc, OD450. A general note: In an ELISA, binding on a coated surface is turned into a signal by an enzyme label.

Experiment [3] deals with T4, Human cMET (human).
T4 construct: recombinant protein; also called human cMET recombinant protein
Nature of the experiment: ELISA, coated human cMET, anti-human Fc-HRP.

Experiment [4] addresses T5, Human cMET.
T5 construct: also called human cMET recombinant protein
T5 chain: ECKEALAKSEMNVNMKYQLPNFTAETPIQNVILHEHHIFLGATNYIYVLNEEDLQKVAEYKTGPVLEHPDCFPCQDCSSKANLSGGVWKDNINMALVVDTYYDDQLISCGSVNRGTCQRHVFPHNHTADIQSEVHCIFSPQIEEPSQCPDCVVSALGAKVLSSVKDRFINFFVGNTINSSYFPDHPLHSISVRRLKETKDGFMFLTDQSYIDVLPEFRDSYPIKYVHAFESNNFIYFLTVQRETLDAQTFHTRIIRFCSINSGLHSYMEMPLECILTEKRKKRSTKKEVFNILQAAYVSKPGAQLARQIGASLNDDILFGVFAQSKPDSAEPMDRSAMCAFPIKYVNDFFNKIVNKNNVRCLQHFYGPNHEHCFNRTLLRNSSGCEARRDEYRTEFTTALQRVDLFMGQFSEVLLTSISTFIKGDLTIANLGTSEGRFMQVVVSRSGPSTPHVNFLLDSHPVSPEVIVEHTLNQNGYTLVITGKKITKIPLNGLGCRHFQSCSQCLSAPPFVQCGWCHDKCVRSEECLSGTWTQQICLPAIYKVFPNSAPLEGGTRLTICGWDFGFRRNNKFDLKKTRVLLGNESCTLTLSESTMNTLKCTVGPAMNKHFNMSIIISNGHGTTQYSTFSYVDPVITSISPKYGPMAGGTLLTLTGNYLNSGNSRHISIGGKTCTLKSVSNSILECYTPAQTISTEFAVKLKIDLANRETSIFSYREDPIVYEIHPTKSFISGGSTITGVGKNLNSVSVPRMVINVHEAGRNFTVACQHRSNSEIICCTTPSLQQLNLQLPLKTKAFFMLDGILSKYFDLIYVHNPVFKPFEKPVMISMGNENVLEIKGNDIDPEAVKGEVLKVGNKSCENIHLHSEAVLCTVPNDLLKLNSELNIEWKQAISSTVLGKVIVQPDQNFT
Nature of the experiment: ELISA, plate coated with 100 ng/well human cMET recombinant protein, HRP anti-human Fc, OD450.

Experiment [5] concerns the target T6, Mouse cMET extracellular domain (ECD) linked to His tag (mouse, UniProt P16056 25-931).
T6 construct: extracellular domain; not shown: His tag
T6 sequence (P16056 25-931): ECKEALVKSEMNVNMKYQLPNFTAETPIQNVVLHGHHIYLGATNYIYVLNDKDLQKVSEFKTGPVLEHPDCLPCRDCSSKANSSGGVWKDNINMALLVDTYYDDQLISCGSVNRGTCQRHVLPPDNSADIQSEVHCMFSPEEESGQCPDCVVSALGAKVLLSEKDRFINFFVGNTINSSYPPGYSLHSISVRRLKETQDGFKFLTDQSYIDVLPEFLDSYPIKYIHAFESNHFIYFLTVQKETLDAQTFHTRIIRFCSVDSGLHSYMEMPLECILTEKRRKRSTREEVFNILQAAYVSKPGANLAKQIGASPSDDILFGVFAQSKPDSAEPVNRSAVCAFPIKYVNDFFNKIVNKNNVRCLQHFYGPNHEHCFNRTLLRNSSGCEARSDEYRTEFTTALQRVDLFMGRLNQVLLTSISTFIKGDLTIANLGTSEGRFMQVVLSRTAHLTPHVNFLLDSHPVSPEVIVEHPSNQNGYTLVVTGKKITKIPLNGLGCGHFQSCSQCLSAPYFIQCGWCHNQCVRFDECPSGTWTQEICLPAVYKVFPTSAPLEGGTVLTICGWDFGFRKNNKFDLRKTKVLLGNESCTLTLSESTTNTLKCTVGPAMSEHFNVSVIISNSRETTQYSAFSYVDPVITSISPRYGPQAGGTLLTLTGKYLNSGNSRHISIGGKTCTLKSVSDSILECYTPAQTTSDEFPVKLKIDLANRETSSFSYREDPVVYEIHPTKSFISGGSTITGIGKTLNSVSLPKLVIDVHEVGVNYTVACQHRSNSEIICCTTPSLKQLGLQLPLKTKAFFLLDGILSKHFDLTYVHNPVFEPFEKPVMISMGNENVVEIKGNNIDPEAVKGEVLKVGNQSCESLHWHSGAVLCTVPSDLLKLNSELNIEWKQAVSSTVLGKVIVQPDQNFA
Description: BLI (Octet RED), antibody on anti-human IgG Fc biosensors, ECD-His in solution. In general terms: In BLI a coated tip is dipped into the sample, and binding shifts an interference pattern.

In experiment [6] the target is T7, Rat EGFR extracellular domain (ECD) linked to His tag (rat, UniProt A0ABK0LZB0 35-651).
T7 construct: extracellular domain; not shown: His tag
Described as above.

The target in experiment [7] is T8, Rat cMET extracellular domain (ECD) linked to His tag (rat, UniProt P97523 25-935).
T8 construct: extracellular domain; not shown: His tag
T8 sequence (P97523 25-935): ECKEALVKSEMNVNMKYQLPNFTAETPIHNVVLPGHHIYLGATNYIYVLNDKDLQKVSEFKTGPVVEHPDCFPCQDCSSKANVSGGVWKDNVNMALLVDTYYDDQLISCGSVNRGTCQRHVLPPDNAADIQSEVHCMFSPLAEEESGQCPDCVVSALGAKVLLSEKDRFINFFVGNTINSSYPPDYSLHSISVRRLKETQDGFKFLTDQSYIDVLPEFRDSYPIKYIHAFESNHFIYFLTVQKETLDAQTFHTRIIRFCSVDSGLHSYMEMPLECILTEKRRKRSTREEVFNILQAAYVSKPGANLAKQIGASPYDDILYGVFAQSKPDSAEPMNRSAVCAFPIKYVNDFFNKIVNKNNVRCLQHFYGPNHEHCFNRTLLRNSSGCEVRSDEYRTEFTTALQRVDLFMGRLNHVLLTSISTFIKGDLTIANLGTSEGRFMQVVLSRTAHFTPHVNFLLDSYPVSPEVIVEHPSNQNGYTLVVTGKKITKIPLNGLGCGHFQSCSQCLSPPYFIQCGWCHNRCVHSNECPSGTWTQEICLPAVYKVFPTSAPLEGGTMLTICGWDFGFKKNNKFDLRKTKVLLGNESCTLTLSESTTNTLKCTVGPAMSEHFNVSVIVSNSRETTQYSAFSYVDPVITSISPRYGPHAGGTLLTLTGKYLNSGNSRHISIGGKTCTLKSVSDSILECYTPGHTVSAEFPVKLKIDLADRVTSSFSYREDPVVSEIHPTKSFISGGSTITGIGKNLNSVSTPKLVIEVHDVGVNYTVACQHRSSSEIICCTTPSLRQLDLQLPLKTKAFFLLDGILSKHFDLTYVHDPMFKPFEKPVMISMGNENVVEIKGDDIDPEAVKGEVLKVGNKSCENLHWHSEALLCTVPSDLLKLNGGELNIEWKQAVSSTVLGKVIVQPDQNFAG
Described as above.

The target in experiment [8] is T1, EGFR on EGFR and cMET co-expressed …. Description: flow cytometry, MKN-45 cells (co-express EGFR and cMET; both arms contribute).
The target of experiment [9] is T2, cMET on EGFR and cMET co-expressed …. The description is as above.
In experiment [10] the target is T9, Human cMET extracellular domain (ECD) linked to His tag (human, UniProt P08581 25-932).
T9 construct: extracellular domain; not shown: His tag
Description: BLI (Octet RED), antibody on anti-human IgG Fc biosensors, ECD-His in solution, 1:1 model.

Experiment [11] addresses T10, Cynomolgus cMET extracellular domain (ECD) linked to His tag (cynomolgus, UniProt O95905).
T10 construct: extracellular domain; also called Cyno cMET; monkey cMET
The description is as above.

In experiment [12] the target is T11, Human EGFR extracellular domain (ECD) linked to His tag (human, UniProt P00533 fragment).
T11 construct: extracellular domain; not shown: His tag
Described as above.

Experiment [13] has as its target T12, Cynomolgus EGFR extracellular domain (ECD) linked to His tag (cynomolgus, UniProt A0A2K5WK39 25-645).
T12 construct: extracellular domain; also called Cyno EGFR; monkey EGFR; not shown: His tag
The experiment is described as above.

Experiment [14] addresses T1, EGFR on EGFR and cMET co-expressed …. Description: flow cytometry, NCI-H292 cells (co-express EGFR and cMET; both arms contribute).
In experiment [15] the target is T2, cMET on EGFR and cMET co-expressed …. Described as above.
In experiment [16] the target is human HER2 recombinant protein (human, UniProt P04626 fragment). Nature of the experiment: ELISA, plate coated with 100 ng/well human HER2 recombinant protein, HRP anti-human Fc, OD450.

B1: Bsab 67 (bispecific antibody, human IgG1, kappa, L234A L235A)
chain 1: AIQLTQSPESLSASVGDRVTITCRASQDISSALVWYQQKPGKAPKLLIYDASSLESGVPDRFSGSESGTDFTLTISSLQPEDFATYYCQQFNSYPLTFGGGTKVEIKRTVAAPSVFIFPPSDEQLKSGTASVVCLLNNFYPREAKVQWKVDNALQSGNSQESVTEQDSKDSTYSLSSTLTLSKADYEKHKVYACEVTHQGLSSPVTKSFNRGECGGGGSGGGGSGGGGSGGGGSGGGGSGGGGSGGGGSGGGGSQVQLVESGGGVVQPGRSLRLSCAASGFTFSTYGMHWVRQAPGQGLEWVAVIWDDGSYKYYGDSVKGRFTISRDNSKNTLYLQMNSLRAEDTAVYYCARDGITMVRGVMKDYFDYWGQGTLVTVSSASTKGPSVFPLAPSSKSTSGGTAALGCLVKDYFPEPVTVSWNSGALTSGVHTFPAVLQSSGLYSLSSVVTVPSSSLGTQTYICNVNHKPSNTKVDKKV[omitted - human IgG1 Fc with L234A L235A Y349C T366W (EU numbers)]
chain 2: DIVMTQSPDSLAVSLGERATINCKSSESVDSYANSFLHWYQQKPGQPPKLLIYRASTRESGVPDRFSGSGSGTDFTLTISSLQAEDVAVYYCQQSKEDPLTFGGGTKVEIKRTVAAPSVFIFPPSDEQLKSGTASVVCLLNNFYPREAKVQWKVDNALQSGNSQESVTEQDSKDSTYSLSSTLTLSKADYEKHKVYACEVTHQGLSSPVTKSFNRGECGGGGSGGGGSGGGGSGGGGSGGGGSGGGGSGGGGSGGGGSQVQLVQSGAEVKKPGASVKVSCKASGYIFTAYTMHWVRQAPGQGLEWMGWIKPNNGLANYAQKFQGRVTMTRDTSISTAYMELSRLRSDDTAVYYCARSEITTEFDYWGQGTLVTVSSASTKGPSVFPLAPSSKSTSGGTAALGCLVKDYFPEPVTVSWNSGALTSGVHTFPAVLQSSGLYSLSSVVTVPSSSLGTQTYICNVNHKPSNTKVDKKVEPKSCDKTHTCPPCPAPEAAGGPSVFLFPPKPKDTLMISRTPEVTCVVVDVSHEDPEVKFNWYVDGVEVHNAKTKPREEQYNSTYRVVSVLTVLHQDWLNGKEYKCKVSNKALPAPIEKTISKAKGQPREPQVYTLPPCRDELTKNQVSLSCAVKGFYPSDIAVEWESNGQPENNYKTTPPVLDSDGSFFLVSKLTVDKSRWQQGNVFSCSVMHEALHNHYTQKSLSLSPGK
notes: two chains, one knob and one hole; also called Basb 67
With B1, the “EC50 (read off the curve)” value in [1] is about 3 nM; in experiment [2], about 3 nM; in the experiment with Human EGFR, about 0.1 nM; with Human cMET [3], about 2 nM; in the experiment with Human cMET [4], about 0.2 nM; in [8], about 4 nM. Also, the 50% effective concentration (EC50 (read off the curve)) in experiment [9] is about 4 nM; in [14], about 3 nM; in experiment [15], about 3 nM. Further, the binding result is reported as “no binding (tested: 200 nM (highest concentration tested))” in experiment [5], “no binding (tested: 100 nM (highest concentration tested))” in [6] and “no binding (tested: 200 nM (highest concentration tested))” in experiment [7]. Moreover, the Kd was found to be 0.003 nM in [10], 0.003 nM in [11], 4.4 nM in experiment [12] and 8.1 nM in experiment [13].

B2: Bsab 67-LD038 (5) (bispecific antibody, human IgG1, kappa, L234A L235A)
chain 1: AIQLTQSPESLSASVGDRVTITCRASQDISSALVWYQQKPGKAPKLLIYDASSLESGVPDRFSGSESGTDFTLTISSLQPEDFATYYCQQFNSYPLTFGGGTKVEIKRTVAAPSVFIFPPSDEQLKSGTASVVCLLNNFYPREAKVQWKVDNALQSGNSQESVTEQDSKDSTYSLSSTLTLSKADYEKHKVYACEVTHQGLSSPVTKSFNRGECGGGGSGGGGSGGGGSGGGGSGGGGSGGGGSGGGGSGGGGSQVQLVESGGGVVQPGRSLRLSCAASGFTFSTYGMHWVRQAPGQGLEWVAVIWDDGSYKYYGDSVKGRFTISRDNSKNTLYLQMNSLRAEDTAVYYCARDGITMVRGVMKDYFDYWGQGTLVTVSSASTKGPSVFPLAPSSKSTSGGTAALGCLVKDYFPEPVTVSWNSGALTSGVHTFPAVLQSSGLYSLSSVVTVPSSSLGTQTYICNVNHKPSNTKVDKKV[omitted - human IgG1 Fc with L234A L235A Y349C T366W (EU numbers)]
chain 2: DIVMTQSPDSLAVSLGERATINCKSSESVDSYANSFLHWYQQKPGQPPKLLIYRASTRESGVPDRFSGSGSGTDFTLTISSLQAEDVAVYYCQQSKEDPLTFGGGTKVEIKRTVAAPSVFIFPPSDEQLKSGTASVVCLLNNFYPREAKVQWKVDNALQSGNSQESVTEQDSKDSTYSLSSTLTLSKADYEKHKVYACEVTHQGLSSPVTKSFNRGECGGGGSGGGGSGGGGSGGGGSGGGGSGGGGSGGGGSGGGGSQVQLVQSGAEVKKPGASVKVSCKASGYIFTAYTMHWVRQAPGQGLEWMGWIKPNNGLANYAQKFQGRVTMTRDTSISTAYMELSRLRSDDTAVYYCARSEITTEFDYWGQGTLVTVSSASTKGPSVFPLAPSSKSTSGGTAALGCLVKDYFPEPVTVSWNSGALTSGVHTFPAVLQSSGLYSLSSVVTVPSSSLGTQTYICNVNHKPSNTKVDKKVEPKSCDKTHTCPPCPAPEAAGGPSVFLFPPKPKDTLMISRTPEVTCVVVDVSHEDPEVKFNWYVDGVEVHNAKTKPREEQYNSTYRVVSVLTVLHQDWLNGKEYKCKVSNKALPAPIEKTISKAKGQPREPQVYTLPPCRDELTKNQVSLSCAVKGFYPSDIAVEWESNGQPENNYKTTPPVLDSDGSFFLVSKLTVDKSRWQQGNVFSCSVMHEALHNHYTQKSLSLSPGK
modifications: LD038 drug-linker coupled after TCEP reduction; DAR 5.1 by LC-MS; sites not given
notes: also called Basb 67-LD038 (5)
Turning to B2, the binding result is recorded as “no binding” in experiment [16], “no binding (tested: 200 nM (highest concentration tested))” in experiment [5], “no binding (tested: 100 nM (highest concentration tested))” in experiment [6] and “no binding (tested: 200 nM (highest concentration tested))” in experiment [7]. In addition, the “EC50 (read off the curve)” value was about 4 nM in experiment [1], about 4 nM in experiment [2], about 0.1 nM with Human EGFR and about 0.2 nM in the experiment with Human cMET [4]. The Kd in experiment [10] was determined as 0.002 nM; in [11], 0.002 nM; in experiment [12] it was 4.5 nM; in experiment [13], 9 nM.
